Laboratory results: PubChem BioAssay AID504937 (National Center for Advancing Translational Sciences (NCATS), 2011)
About 20 (0.006%) of roughly 340,000 compounds were called active. The shares of active, inactive and inconclusive entries below differ from those in the screen. The call rests on the fitted dose curve; in most records, active means well fitted inhibition curve with a large enough effect; inconclusive means small, poorly fitted or top-dose-only effect; inactive means no such curve, though single readings can be large or run the other way. Potencies of inconclusive entries are doubtful fits and often do not repeat.

biological target: Sphingomyelin phosphodiesterase (Homo sapiens) (UniProt P17405); assay: Inhibitors of Secretory Acid Sphingomyelinase (S-ASM): qHTS; conditions: placental ASM, HMU-PC fluorogenic substrate (series up to 57.5 µM), 60 min
Sequence of UniProt P17405 (P17405 whole entry, looked up): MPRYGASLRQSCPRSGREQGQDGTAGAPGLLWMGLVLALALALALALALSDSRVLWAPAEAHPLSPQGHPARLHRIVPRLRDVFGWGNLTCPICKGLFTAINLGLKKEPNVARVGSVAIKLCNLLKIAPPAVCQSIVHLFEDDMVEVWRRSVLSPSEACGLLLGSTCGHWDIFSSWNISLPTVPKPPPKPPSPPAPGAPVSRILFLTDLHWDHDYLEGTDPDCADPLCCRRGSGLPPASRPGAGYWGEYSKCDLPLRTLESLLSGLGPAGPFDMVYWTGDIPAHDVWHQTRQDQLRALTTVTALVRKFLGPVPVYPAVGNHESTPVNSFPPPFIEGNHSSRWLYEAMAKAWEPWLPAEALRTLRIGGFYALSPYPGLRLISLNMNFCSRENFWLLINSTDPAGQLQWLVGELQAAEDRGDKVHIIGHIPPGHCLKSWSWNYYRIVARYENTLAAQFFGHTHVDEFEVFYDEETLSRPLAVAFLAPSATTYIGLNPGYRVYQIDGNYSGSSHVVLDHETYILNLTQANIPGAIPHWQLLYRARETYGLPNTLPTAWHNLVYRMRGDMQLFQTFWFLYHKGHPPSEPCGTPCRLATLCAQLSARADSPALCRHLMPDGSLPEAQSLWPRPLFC
In short: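 Fluorescence read-out (Ex 386 nm, Em 447 nm) after stopping the reaction at pH 10. Enzyme: ASM from human placenta; substrate HMU-PC0, 9 uM final; 60 min, 37 °C. Compound preincubation 10 min, ambient temperature.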
Potency means the concentration at half of the fitted maximal effect; tags describe the fitted curve by direction and shape.

Row | SMILES | Potency
1 | O=C(NC[P+](=O)O)OCc1ccccc1 | inconclusive: 89.1 µM [inhibitor, partial curve]
2 | CCN(CC)c1ccc(/C=C/[N+](=O)[O-])cc1 | inconclusive: 708 µM [inhibitor, partial curve, poor fit]
3 | Cc1c(C=C2C(=O)N(C)C(=O)N(C)C2=O)c(=O)n(-c2ccccc2)n1C | inactive
4 | CCCCCC1CC(CC(=O)NC(=S)Nc2ccc([N+](=O)[O-])cc2)C(=O)O1 (stereo not given) | inconclusive: 224 µM [inhibitor, partial curve, poor fit]
5 | Cc1ccccc1C(=O)Oc1cccc(Nc2ncnc3ccccc23)c1 | inconclusive: 100 µM [inhibitor, single point]
6 | COc1ccc(C(O)P(=O)(Oc2ccccc2)Oc2ccccc2)cc1 (stereo not given) | inconclusive: 79.4 µM [inhibitor, partial curve, poor fit]
7 | O=[As](O)(O)c1ccc(N=Nc2ccc(O)cc2)cc1 | inconclusive: 79.4 µM [inhibitor, single point]
8 | C=Cn1c(P(=S)(N2CCOCC2)N2CCOCC2)cc2c1CCCC2 | inconclusive: 100 µM [inhibitor, partial curve, poor fit]
9 | Cc1c(N=Nc2c(O)[nH]c(=S)[nH]c2=O)c(=O)n(-c2ccccc2)n1C | inconclusive: 398 µM [inhibitor, partial curve, poor fit]
10 | CC(C)N1C(=O)/C(=C/C=C/c2ccco2)C(=O)N(Cc2ccco2)C1=O | inconclusive: 224 µM [inhibitor, partial curve, poor fit]
11 | CCN(CC)C(=O)[C@H]1C[C@H](CC(=O)NCC23CC4CC(CC(C4)C2)C3)C(=O)N2CCc3c([nH]c4cc(-c5ccco5)ccc34)[C@]12C | inconclusive: 224 µM [inhibitor, partial curve, poor fit]
12 | Cc1cc(/C=C2\C(=O)NC(=O)N(Cc3ccco3)C2=O)c(C)n1-c1ccc(O)cc1 | inconclusive: 89.1 µM [inhibitor, single point]
13 | COc1ccc2sc(-c3ccccc3OC)c(-c3ccc(OCCN4CCOCC4)cc3)c2c1 | inconclusive: 89.1 µM [inhibitor, single point]
14 | O=c1[nH]c(=S)n(Cc2ccc(F)cc2)c(O)c1/C=N/N1CCCCCC1 | inconclusive: 141 µM [inhibitor, partial curve, poor fit]
15 | COC(=O)C1=C(c2ccc(OCc3ccccc3)cc2)C[C@@H]2CC[C@H]1N2C(=O)NCc1ccccc1 | inconclusive: 316 µM [inhibitor, partial curve, poor fit]
